Reference: publication PMC4336329 (PLoS ONE, 2015)
The whole screen tested about 310,000 compounds, of which about 2,200 (0.71%) showed an effect of 50% or more. The effect is printed as a negative number. Some of the results follow.

These compounds were tested against human ether-à-go-go-related gene (hERG) potassium channel (human, UniProt Q12809) (assay: primary screen, population patch clamp on CHO cells stably expressing hERG).
human ether-à-go-go-related gene (hERG) potassium channel, sequence (Q12809 whole entry, looked up): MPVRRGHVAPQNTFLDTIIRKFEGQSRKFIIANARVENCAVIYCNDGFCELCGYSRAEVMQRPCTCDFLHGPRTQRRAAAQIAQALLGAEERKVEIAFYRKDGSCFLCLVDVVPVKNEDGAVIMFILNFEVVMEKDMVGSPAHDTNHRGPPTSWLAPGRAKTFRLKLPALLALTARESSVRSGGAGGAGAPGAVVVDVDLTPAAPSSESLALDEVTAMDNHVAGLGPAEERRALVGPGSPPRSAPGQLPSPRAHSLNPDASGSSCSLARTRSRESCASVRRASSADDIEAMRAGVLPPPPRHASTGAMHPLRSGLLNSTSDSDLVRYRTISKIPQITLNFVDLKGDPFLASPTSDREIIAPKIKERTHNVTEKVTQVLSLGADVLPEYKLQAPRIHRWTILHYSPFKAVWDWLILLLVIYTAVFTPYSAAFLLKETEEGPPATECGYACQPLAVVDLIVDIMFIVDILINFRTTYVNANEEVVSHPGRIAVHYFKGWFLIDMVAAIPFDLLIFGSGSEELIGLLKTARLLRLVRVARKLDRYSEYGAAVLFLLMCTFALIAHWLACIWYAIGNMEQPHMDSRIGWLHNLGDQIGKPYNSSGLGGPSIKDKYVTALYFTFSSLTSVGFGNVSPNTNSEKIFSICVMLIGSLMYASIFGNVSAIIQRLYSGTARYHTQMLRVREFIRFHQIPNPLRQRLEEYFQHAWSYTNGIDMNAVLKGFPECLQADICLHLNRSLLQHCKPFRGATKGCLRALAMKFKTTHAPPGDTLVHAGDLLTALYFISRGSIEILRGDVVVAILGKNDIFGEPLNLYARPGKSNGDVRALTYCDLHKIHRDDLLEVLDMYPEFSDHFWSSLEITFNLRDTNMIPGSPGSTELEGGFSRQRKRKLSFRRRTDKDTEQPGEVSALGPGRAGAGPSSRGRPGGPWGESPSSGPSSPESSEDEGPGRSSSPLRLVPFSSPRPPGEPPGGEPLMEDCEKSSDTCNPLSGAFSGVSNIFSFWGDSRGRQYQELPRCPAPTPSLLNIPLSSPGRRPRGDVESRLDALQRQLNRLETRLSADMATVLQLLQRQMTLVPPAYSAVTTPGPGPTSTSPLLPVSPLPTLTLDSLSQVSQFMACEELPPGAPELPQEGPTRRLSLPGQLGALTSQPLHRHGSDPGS

| SMILES | hERG current change (%, negative = inhibition) at 1uM [%] |
| --- | --- |
| Cc1onc(-c2c(F)cccc2Cl)c1C(=O)NC(=S)Nc1c(C)n(C)n(-c2ccccc2)c1=O | 10.6 |
| O=C(CCC1CCCC1)N=C1SC2CS(=O)(=O)CC2N1Cc1ccccc1 (stereo not drawn) | 14.9 |
| CCCCNC(=O)c1onc(CSc2nc3ccccc3[nH]2)c1C(=O)NCCCC | 6.57 |
| CC(NC(=O)COc1cccnc1[N+](=O)[O-])c1ccc(Cl)cc1 (stereo not drawn) | 8.12 |
| Cc1ccc(NS(=O)(=O)c2c(C)[nH]c(C)c2C(=O)N2CCCCC2)c(Cl)c1 | 8.09 |
| O=C(NCCCO)/C(=C\C=C\c1ccccc1)NC(=O)c1ccccc1Cl | 10.4 |
| CCCCn1c(N)c(N(CC)C(=O)/C=C/c2ccco2)c(=O)[nH]c1=O | 1.82 |
| COc1cc2c(c(OC)c1O)C(=O)CO2 | 18.1 |
| COc1ccc(S(=O)(=O)N2CCCCCC2)cc1C(=O)N(C)CC(=O)Nc1ccccc1Br | 25.6 |
| CC(=O)c1ccc(NC(=O)CSc2nc(N)c3cc4c(nc3n2)CCCC4)cc1 | 11.9 |
| O=c1[nH]c2cc(S(=O)(=O)CCO)ccc2o1 | 12.8 |
| Cc1nc([N+](=O)[O-])c(Br)n1Cc1ccccc1 | 6.81 |
| C/C(=N/NC(=O)c1cccc(Br)c1)C1CC2CCC1C2 (stereo not drawn) | 7.3 |
| Cc1cnc(C(=O)OCC(=O)c2ccccc2)cn1 | 14.2 |
| Cc1c(NC(=O)/C(C#N)=C/c2c(N3CCCCC3)nc3ccccn3c2=O)c(=O)n(-c2ccccc2)n1C | 8.14 |
| CCOc1ccc(NC(=O)CSc2cn[nH]n2)cc1 | 1.69 |
| Cc1c(C=NCCOCc2ccccc2)cnn1C | 11.7 |
| Cc1ccc(N2CC(C(=O)N3CCOCC3)CC2=O)cc1C (stereo not drawn) | 12.4 |
| COc1cc2c(-c3ccccc3O)nc3c(c(C)nn3-c3ccccc3)c2cc1OC | 2.24 |

| SMILES | hERG current change (%, negative = inhibition) at 1uM [%] |
| --- | --- |
| O=C1c2ccccc2C(=O)C1(CO)c1ccccc1 | 12 |
| COCCCNC(=S)N(Cc1ccccc1)Cc1ccc(F)cc1 | 4.9 |
| Cc1nonc1-c1ccc2c(c1)OCO2 | 15.9 |
| CN(CCOc1ccccc1)C(=O)c1cc([N+](=O)[O-])cc([N+](=O)[O-])c1 | -23.9 |
| O=C(NCCN1CCOCC1)c1ccc2c(c1)N(Cc1ccccc1)CCS2 | 1.85 |
| COC(=O)c1ccc(C)c(NC(=O)CN(c2cc(OC)ccc2OC)S(C)(=O)=O)c1 | -7.38 |
| CC(=O)N/N=C(\C)CCc1ccccc1 | 16.3 |
| Cc1ccccc1OCC(=O)Nc1ccc(S(=O)(=O)Nc2onc(C)c2C)cc1 | 18.8 |
| COCCCn1c(SCC(=O)Nc2ccc(C)cc2)nc2ccccc2c1=O | 7.61 |
| COc1ccc([C@@H]2[C@@H]3C(=O)N(C(C)(C)C)C(=O)[C@@H]3[C@]3(CC(C)C)C(=O)N(c4cccc(Br)c4)C(=O)N23)cc1 | 15.8 |
| O=C(CSc1cn(CC(=O)N2CCCCCC2)c2ccccc12)NCC1CCCO1 (stereo not drawn) | 7.45 |
| CCNC(=O)CC1SC(=Nc2ccccc2C)N(C)C1=O (stereo not drawn) | -2.18 |
| CSc1ccc(CCNC(=O)C2CCCN(S(=O)(=O)N3CCOCC3)C2)cc1 (stereo not drawn) | 16.2 |
| CC(Cc1c[nH]c2ccccc12)C(=O)O (stereo not drawn) | 7.64 |
| Cc1cc(C(=O)NC2CCCN(Cc3ccc(Cl)cc3)C2)no1 (stereo not drawn) | 7.23 |
| CCCc1cc(=O)oc2cc(C)cc(OC(C)C(=O)NCCCn3ccnc3)c12 (stereo not drawn) | 4.4 |
| COc1ccc(C(=O)NCCOc2cccc(Oc3ccccc3)c2)cc1OC | 8.42 |
| CC12CCC(C(=O)N3CCCCC3)(CC1=O)C2(C)C (stereo not drawn) | 12.2 |
| CCCCCC(=O)Nc1c2c(nc3ccccc13)CCC2 | 4.6 |

| SMILES | hERG current change (%, negative = inhibition) at 1uM [%] |
| --- | --- |
| COc1cc(CC(=O)OCC(=O)c2ccc3c(c2)OCCO3)cc(OC)c1OC | -3.16 |
| O=C(NC(=S)Nc1ccccn1)c1ccc(-c2ccccc2)cc1 | 8.82 |
| COc1ccc(-n2nc(C(=O)NCC(=O)N3CCN(C)CC3)c3ccccc3c2=O)cc1OC | 12.4 |
| O=S(=O)(c1ccc(OCC(O)CN2CCN(c3ccccc3)CC2)cc1)N1CCOCC1 (stereo not drawn) | 7.19 |
| CC(=O)N1CC(C)Sc2ccc(S(=O)(=O)NCCc3cccc(C)c3)cc21 (stereo not drawn) | 8.76 |
| CC(=O)NC(CC(=O)OCC(=O)N1c2ccccc2NC(=O)C1(C)C)c1ccccc1 (stereo not drawn) | 3.54 |
| O=c1nccc(N/N=C/c2cccc(O)c2)[nH]1 | 18.3 |
| CCOC(=O)c1c(NC(=O)c2nn(C)cc2[N+](=O)[O-])sc(C)c1C | 13.3 |
| Cc1cc(C(=O)Nc2ccon2)ccc1[N+](=O)[O-] | 9.65 |
| Cc1cc(C(=O)COC(=O)c2nc3nccc(C)n3n2)c(C)n1CC1CCCO1 (stereo not drawn) | 17.1 |
| CCCc1c(C(=O)OCC)[nH]c2c1C(=O)CCC2 | 8.63 |
| CCOC(=O)c1cc2oc(C(c3nnnn3C3CCCCC3)N3CCOCC3)cc2[nH]1 (stereo not drawn) | 0.694 |
| C/C(=N\NC(=O)c1n[nH]c2c1CCC2)c1cccs1 | 14.2 |
| Cc1cccc(C(=O)Nc2ccc3c(c2)CC2(C(=O)N(C)C(=O)N(C)C2=O)C2CCCN32)c1 (stereo not drawn) | 15.1 |
| CCCC/C(C)=N/NC(=O)C(=O)NCCc1ccccc1 | 6.75 |
| CC1CCCN(CC(O)COc2ccc(-c3ccccc3)cc2)C1 (stereo not drawn) | -57.8 |
| Cc1ccc(-c2nc(=S)c3c(n2Cc2cccnc2)CC(C)(C)OC3)cc1 | 12.2 |
| Cc1ccc(NC(=O)CCC(=O)NNC(=O)c2ccccc2Cl)c(C)c1 | 9.61 |
| c1ccc(-c2nc(C3CCCCC3)no2)cc1 | 6.95 |
